Assay results from the supplement of paper PMC10037445.
Over roughly 2,900 compounds, “NF-kB SEAP reporter activity, fold change vs agonist alone” has its median near 0.99; the highest 2% begin near 2.6. This is one part of the list.

Key:
[1] = tested on: RAW-Dual; experiment: NF-kB SEAP reporter activity, fold change vs agonist alone; cytotoxicity flag (confluency mask): not cytotoxic; higher = enhanced NF-kB activity
Method in brief: (§1)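 RAW-Dual macrophages were seeded in DMEM at 50,000 cells/well in 384-well plates, given 50 nL of library stock by pin tool, and given a PRR agonist 1 h later. Plates were held at 37 °C, 5% CO2 for 20 hours, after which supernatant was read for IRF by QuantiLuc luminescence and for NF-κB by QuantiBlue absorbance at 620 nm. Reporter activity is expressed as fold change over wells that received agonist alone. A well was called cytotoxic when IncuCyte confluency fell below 70% of agonist controls in both mask sets.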

[2] = tested on: RAW-Dual; experiment: NF-kB SEAP reporter activity, fold change vs agonist alone; higher = enhanced NF-kB activity
Method in brief: as §1

[3] = tested on: RAW-Dual; experiment: NF-kB SEAP reporter activity, fold change vs agonist alone; cytotoxicity flag (confluency mask): cytotoxic (confluency <70% of control); higher = enhanced NF-kB activity
Method in brief: as §1

[4] = agonist: ODN 1826 (TLR9) 0.5 ug/mL
[5] = agonist: Pam2CSK4 (TLR2/6) 0.1 ug/mL
[6] = agonist: Pam3CSK4 (TLR2/1) 0.1 ug/mL
[7] = library stock concentration (final ~1000-fold dilution): 10 mM, cytotoxicity flag (confluency mask): not cytotoxic, agonist: MPLA (TLR4) […]
[8] = library stock concentration (final ~1000-fold dilution): 10 mM, cytotoxicity flag (confluency mask): not cytotoxic, agonist: Imiquimod (TLR7) […]
[9] = library stock concentration (final ~1000-fold dilution): 10 mM water, cytotoxicity flag (confluency mask): not cytotoxic, agonist: Imiquimod (TLR7) […]
[10] = library stock concentration (final ~1000-fold dilution): 10 mM water, cytotoxicity flag (confluency mask): not cytotoxic, agonist: MPLA (TLR4) […]

## CC1CCCC(C)N1 (configuration not stated) (library stock concentration (final ~1000-fold dilution): 10 mM)
[1]; agonist: LPS (TLR4) 0.1 ug/mL
  NF-kB SEAP reporter activity: 0.971
[1]; [4]
  NF-kB SEAP reporter activity: 0.981
[1]; [5]
  NF-kB SEAP reporter activity: 1.06
[1]; [6]
  NF-kB SEAP reporter activity: 0.932

## CC1CCCC(C)N1 (configuration not stated)
[2]; [7]
  NF-kB SEAP reporter activity: 1.12

## O=C(O)CCCN1CCC(OC(c2ccc(Cl)cc2)c2ccccn2)CC1.O=S(=O)(O)c1ccccc1 (configuration not stated)
[2]; [8]
  NF-kB SEAP reporter activity: 1.08
[2]; [7]
  NF-kB SEAP reporter activity: 1.03

## O=C(O)CCCN1CCC(OC(c2ccc(Cl)cc2)c2ccccn2)CC1.O=S(=O)(O)c1ccccc1 (configuration not stated) (library stock concentration (final ~1000-fold dilution): 10 mM)
[1]; agonist: LPS (TLR4) 0.1 ug/mL
  NF-kB SEAP reporter activity: 1.04
[1]; [4]
  NF-kB SEAP reporter activity: 1.06
[1]; [5]
  NF-kB SEAP reporter activity: 1.01
[1]; [6]
  NF-kB SEAP reporter activity: 1.17

## CCOC(=O)C(CCc1ccccc1)NC(C)C(=O)N1Cc2cc(OC)c(OC)cc2CC1C(=O)O.Cl (configuration not stated)
[2]; [8]
  NF-kB SEAP reporter activity: 0.953
[2]; [7]
  NF-kB SEAP reporter activity: 1.04

## CCOC(=O)C(CCc1ccccc1)NC(C)C(=O)N1Cc2cc(OC)c(OC)cc2CC1C(=O)O.Cl (configuration not stated) (library stock concentration (final ~1000-fold dilution): 10 mM)
[1]; agonist: LPS (TLR4) 0.1 ug/mL
  NF-kB SEAP reporter activity: 0.91
[1]; [4]
  NF-kB SEAP reporter activity: 1.01
[1]; [5]
  NF-kB SEAP reporter activity: 1.04
[1]; [6]
  NF-kB SEAP reporter activity: 1.06

## O.c1cnc2c(c1)ccc1cccnc12 (library stock concentration (final ~1000-fold dilution): 10 mM)
[1]; agonist: LPS (TLR4) 0.1 ug/mL
  NF-kB SEAP reporter activity: 2.48
[1]; [4]
  NF-kB SEAP reporter activity: 1.17
[1]; [5]
  NF-kB SEAP reporter activity: 1.44
[1]; [6]
  NF-kB SEAP reporter activity: 2.06

## O.c1cnc2c(c1)ccc1cccnc12
[2]; [8]
  NF-kB SEAP reporter activity: 2.78
[2]; [7]
  NF-kB SEAP reporter activity: 2.1

## CC1(C)CC[C@]2(C(=O)O)CC[C@]3(C)[C@H](C(=O)C=C4[C@@]5(C)C=C(C#N)C(=O)C(C)(C)[C@@H]5CC[C@]43C)[C@@H]2C1 (library stock concentration (final ~1000-fold dilution): 10 mM)
[1]; agonist: LPS (TLR4) 0.1 ug/mL
  NF-kB SEAP reporter activity: 0.307
[1]; [4]
  NF-kB SEAP reporter activity: 1.54
[1]; [5]
  NF-kB SEAP reporter activity: 0.0752
[1]; [6]
  NF-kB SEAP reporter activity: 0.183

## CC1(C)CC[C@]2(C(=O)O)CC[C@]3(C)[C@H](C(=O)C=C4[C@@]5(C)C=C(C#N)C(=O)C(C)(C)[C@@H]5CC[C@]43C)[C@@H]2C1
[2]; [8]
  NF-kB SEAP reporter activity: 1.62
[2]; [7]
  NF-kB SEAP reporter activity: 2.03

## Cl.Cl.OCCOCCN1CCN(C(c2ccccc2)c2ccc(Cl)cc2)CC1 (configuration not stated)
[2]; [8]
  NF-kB SEAP reporter activity: 1.4
[2]; [7]
  NF-kB SEAP reporter activity: 0.983

## Cl.Cl.OCCOCCN1CCN(C(c2ccccc2)c2ccc(Cl)cc2)CC1 (configuration not stated) (library stock concentration (final ~1000-fold dilution): 10 mM)
[1]; agonist: LPS (TLR4) 0.1 ug/mL
  NF-kB SEAP reporter activity: 1.34
[1]; [4]
  NF-kB SEAP reporter activity: 0.686
[1]; [5]
  NF-kB SEAP reporter activity: 1.08
[1]; [6]
  NF-kB SEAP reporter activity: 1.03

## O=C(O)C1(C(=O)O)CCC1.[NH2-].[NH2-].[Pt+2]
[2]; [9]
  NF-kB SEAP reporter activity: 0.955
[2]; [10]
  NF-kB SEAP reporter activity: 1.01

## O=C(O)C1(C(=O)O)CCC1.[NH2-].[NH2-].[Pt+2] (library stock concentration (final ~1000-fold dilution): 10 mM water)
[1]; agonist: LPS (TLR4) 0.1 ug/mL
  NF-kB SEAP reporter activity: 0.95
[1]; [4]
  NF-kB SEAP reporter activity: 1.01
[1]; [5]
  NF-kB SEAP reporter activity: 1.12
[1]; [6]
  NF-kB SEAP reporter activity: 1.01

## O=C1CCC(N2Cc3c(OCc4ccc(CN5CCOCC5)cc4)cccc3C2=O)C(=O)N1 (configuration not stated)
[2]; [8]
  NF-kB SEAP reporter activity: 0.608
[2]; [7]
  NF-kB SEAP reporter activity: 0.916

## O=C1CCC(N2Cc3c(OCc4ccc(CN5CCOCC5)cc4)cccc3C2=O)C(=O)N1 (configuration not stated) (library stock concentration (final ~1000-fold dilution): 10 mM)
[1]; agonist: LPS (TLR4) 0.1 ug/mL
  NF-kB SEAP reporter activity: 1
[1]; [4]
  NF-kB SEAP reporter activity: 0.76
[1]; [5]
  NF-kB SEAP reporter activity: 1.1
[1]; [6]
  NF-kB SEAP reporter activity: 1.13

## CCOC(=O)CC(=O)O (library stock concentration (final ~1000-fold dilution): 10 mM water)
[1]; agonist: LPS (TLR4) 0.1 ug/mL
  NF-kB SEAP reporter activity: 1.31
[1]; [4]
  NF-kB SEAP reporter activity: 1.09
[1]; [5]
  NF-kB SEAP reporter activity: 1.18
[1]; [6]
  NF-kB SEAP reporter activity: 1.03

## CCOC(=O)CC(=O)O
[2]; [9]
  NF-kB SEAP reporter activity: 0.955
[2]; [10]
  NF-kB SEAP reporter activity: 1

## C=C1C(=O)OC2C1CCC(C)=CCCC1(C)OC21 (configuration not stated) (library stock concentration (final ~1000-fold dilution): 1 mM)
[1]; agonist: LPS (TLR4) 0.1 ug/mL
  NF-kB SEAP reporter activity: 0.783
[1]; [4]
  NF-kB SEAP reporter activity: 0.723
[1]; [5]
  NF-kB SEAP reporter activity: 0.814
[1]; [6]
  NF-kB SEAP reporter activity: 0.641

## C=C1C(=O)OC2C1CCC(C)=CCCC1(C)OC21 (configuration not stated)
[2]; library stock concentration (final ~1000-fold dilution): 1 mM, cytotoxicity flag (confluency mask): not cytotoxic, agonist: Imiquimod (TLR7) […]
  NF-kB SEAP reporter activity: 0.92
[2]; library stock concentration (final ~1000-fold dilution): 1 mM, cytotoxicity flag (confluency mask): not cytotoxic, agonist: MPLA (TLR4) […]
  NF-kB SEAP reporter activity: 0.844

## O=c1c(O)c(-c2ccc(O)c(O)c2)oc2cc(O)cc(O)c12 (library stock concentration (final ~1000-fold dilution): 10 mM)
[1]; agonist: LPS (TLR4) 0.1 ug/mL
  NF-kB SEAP reporter activity: 1.01
[1]; [4]
  NF-kB SEAP reporter activity: 0.678
[1]; [5]
  NF-kB SEAP reporter activity: 0.586
[1]; [6]
  NF-kB SEAP reporter activity: 0.902

## O=c1c(O)c(-c2ccc(O)c(O)c2)oc2cc(O)cc(O)c12
[2]; [8]
  NF-kB SEAP reporter activity: 1.15
[2]; [7]
  NF-kB SEAP reporter activity: 1.03

## O=C(Nc1ccc([N+](=O)[O-])cc1O)Nc1ccccc1Br (library stock concentration (final ~1000-fold dilution): 10 mM)
[3]; agonist: LPS (TLR4) 0.1 ug/mL
  NF-kB SEAP reporter activity: 2.98
[3]; [4]
  NF-kB SEAP reporter activity: 2.14
[3]; [5]
  NF-kB SEAP reporter activity: 0.989
[3]; [6]
  NF-kB SEAP reporter activity: 1.7

## O=C(Nc1ccc([N+](=O)[O-])cc1O)Nc1ccccc1Br
[2]; library stock concentration (final ~1000-fold dilution): 10 mM, cytotoxicity flag (confluency mask): cytotoxic (confluency <70% of control), agonist: Imiquimod (TLR7) […]
  NF-kB SEAP reporter activity: 1.47
[2]; library stock concentration (final ~1000-fold dilution): 10 mM, cytotoxicity flag (confluency mask): cytotoxic (confluency <70% of control), agonist: MPLA (TLR4) […]
  NF-kB SEAP reporter activity: 1.48

## O=C(c1cncc(Br)c1)N1CCC(N2CCCC2)CC1 (library stock concentration (final ~1000-fold dilution): 10 mM)
[1]; agonist: LPS (TLR4) 0.1 ug/mL
  NF-kB SEAP reporter activity: 1.52
[1]; [4]
  NF-kB SEAP reporter activity: 0.963
[1]; [5]
  NF-kB SEAP reporter activity: 0.983
[1]; [6]
  NF-kB SEAP reporter activity: 1.02

## O=C(c1cncc(Br)c1)N1CCC(N2CCCC2)CC1
[2]; [8]
  NF-kB SEAP reporter activity: 0.961
[2]; [7]
  NF-kB SEAP reporter activity: 1.04
